Reference: a collection of fitness landscapes (doi:10.1016/j.celrep.2020.107928)
Whole data set: some 81,000 sequences, median “one-hybrid fitness for binding NBS DNA” near -0.1, cut for the highest 2% near 0.36. Some of the results follow.

B1: Caulobacter ParB omega fusion; a variant is named by its letters at X, in order, B8GW30 (parent)
chain: MESVVVGEPGMSEGRRGLGRGLSALLGEVDAAPAQAPGEQLGGSREAPIEILQRNPDQPRRTFREEDLEDLSNSIREKGVLQPILVRPSPDTAGEYQIVAGERAWRAAQRAGLKTVPIMVRELDDLAVLEIGIIENVQRADLNVLEEALSYKVLMEKFERTQENIAQTIGKSXSHVANXMRLLXLPDEVQSYLVSGELTAXHARAIAAAADPVALAKQIIEGGLSVRETEALARKAPNLSAGKSKGGRPPRVKDTDTQALESDLSSVLGLDVSIDHRGSTGTLTITYATLEQLDDLCNRLTRGI

Variants of: B1
Experiment: one-hybrid fitness for binding NBS DNA (the Noc-binding site; scaled: cognate 1, non-cognate 0); higher = stronger binding
Conditions: with NBS DNA site
Procedure, shortened: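 In E. coli USO, a HIS3 reporter with its site placed 19 bp from the promoter was used to select Caulobacter ParB variants randomised at four specificity codons. Growth lasted 48 hours at 37°C on histidine-free M9 containing 0.1 mM IPTG and 5 mM 3-AT. Fitness was taken as the log change in variant-to-wild-type read ratio from Illumina sequencing of pre- and post-selection plasmids, rescaled between the non-cognate and cognate sites.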

Row | Variant | one-hybrid fitness for binding NBS DNA
1 | PGTF | ≤ 0.2
2 | MCGS | ≤ 0.2
3 | ERGW | ≤ 0.2
4 | HQTV | ≤ 0.2
5 | AAYG | ≤ 0.2
6 | ELWG | ≤ 0.2
7 | RTLQ | ≤ 0.2
8 | ALLV | ≤ 0.2
9 | EQAS | ≤ 0.2
10 | CNWT | ≤ 0.2
11 | PCKT | ≤ 0.2
12 | QSRY | 0.505
13 | NPGR | ≤ 0.2
14 | SFLA | ≤ 0.2
15 | LHFR | ≤ 0.2
16 | PITF | ≤ 0.2
17 | RKKG | 0.227
18 | MLET | ≤ 0.2
19 | RVYI | ≤ 0.2
20 | CFYV | ≤ 0.2
21 | SDIC | ≤ 0.2
22 | ESTW | ≤ 0.2
23 | PQHK | ≤ 0.2
24 | WVRA | ≤ 0.2

Row | Variant | one-hybrid fitness for binding NBS DNA
25 | RPED | ≤ 0.2
26 | GVVA | ≤ 0.2
27 | SMTY | ≤ 0.2
28 | QVQH | ≤ 0.2
29 | QQTE | ≤ 0.2
30 | LYTY | ≤ 0.2
31 | ECRC | ≤ 0.2
32 | QEVE | ≤ 0.2
33 | GDVT | ≤ 0.2
34 | QLCW | ≤ 0.2
35 | PCMC | ≤ 0.2
36 | RHGR | 0.403
37 | PFAV | ≤ 0.2
38 | DAMR | ≤ 0.2
39 | RTTW | ≤ 0.2
40 | QNDC | ≤ 0.2
41 | RQGS | 0.408
42 | PQSS | ≤ 0.2
43 | TLAK | ≤ 0.2
44 | TQFR | ≤ 0.2
45 | ADVF | ≤ 0.2
46 | VTHF | ≤ 0.2
47 | SLLY | ≤ 0.2
48 | TMRI | ≤ 0.2

Row | Variant | one-hybrid fitness for binding NBS DNA
49 | KYSV | ≤ 0.2
50 | NIWT | ≤ 0.2
51 | LHWL | ≤ 0.2
52 | FWFG | ≤ 0.2
53 | KNIL | ≤ 0.2
54 | ERFA | ≤ 0.2
55 | VRYC | ≤ 0.2
56 | PQVE | ≤ 0.2
57 | CYMT | ≤ 0.2
58 | KMPS | ≤ 0.2
59 | PIGS | ≤ 0.2
60 | VDHT | ≤ 0.2
61 | RIIN | ≤ 0.2
62 | RESN | ≤ 0.2
63 | GAGL | ≤ 0.2
64 | CVPG | ≤ 0.2
65 | ALSY | ≤ 0.2
66 | NNYL | ≤ 0.2
67 | ARCL | ≤ 0.2
68 | RQIM | ≤ 0.2
69 | WRAV | ≤ 0.2
70 | PLWH | ≤ 0.2
71 | RAWS | 0.262
72 | HKSY | ≤ 0.2

Row | Variant | one-hybrid fitness for binding NBS DNA
73 | VVLP | ≤ 0.2
74 | HSQW | ≤ 0.2
75 | WAPY | ≤ 0.2
76 | KGRR | ≤ 0.2
77 | TPVF | ≤ 0.2
78 | YITC | ≤ 0.2
79 | SMAK | ≤ 0.2
80 | TNDF | ≤ 0.2
81 | QPFA | ≤ 0.2
82 | QKFP | ≤ 0.2
83 | QMMF | ≤ 0.2
84 | ARMM | ≤ 0.2
85 | ADHG | ≤ 0.2
86 | PCKG | ≤ 0.2
87 | EHDC | ≤ 0.2
88 | TSGE | ≤ 0.2
89 | CGYF | ≤ 0.2
90 | TPRN | ≤ 0.2
91 | QTQF | ≤ 0.2
92 | NYIG | ≤ 0.2
93 | ECLS | ≤ 0.2
94 | HKAS | ≤ 0.2
95 | CCHL | ≤ 0.2
96 | CVAR | ≤ 0.2

Row | Variant | one-hybrid fitness for binding NBS DNA
97 | HVTV | ≤ 0.2
98 | CDKA | ≤ 0.2
99 | ITYW | ≤ 0.2
100 | ERGV | ≤ 0.2
101 | TANH | ≤ 0.2
102 | NMTY | ≤ 0.2
103 | LPLH | ≤ 0.2
104 | TMMS | ≤ 0.2
105 | IYNM | ≤ 0.2
106 | QGVP | ≤ 0.2
107 | CLRS | ≤ 0.2
108 | WSVC | ≤ 0.2
109 | GWRK | ≤ 0.2
110 | QTIC | ≤ 0.2
111 | RMMG | ≤ 0.2
112 | HPDE | ≤ 0.2
113 | TQHL | ≤ 0.2
114 | CKPS | ≤ 0.2
115 | GHNG | ≤ 0.2
116 | QNPI | ≤ 0.2
117 | SFLS | ≤ 0.2
118 | ALFA | ≤ 0.2
119 | KLKE | ≤ 0.2
120 | AITV | ≤ 0.2

Row | Variant | one-hybrid fitness for binding NBS DNA
121 | SFQI | ≤ 0.2
122 | WIWG | ≤ 0.2
123 | CPLD | ≤ 0.2
124 | WLLC | ≤ 0.2
125 | YMSS | ≤ 0.2
126 | DWLL | ≤ 0.2
127 | GPWN | ≤ 0.2
128 | LFLG | ≤ 0.2
129 | RDYT | ≤ 0.2
130 | KHIG | ≤ 0.2
131 | RAAK | ≤ 0.2
132 | DWAG | ≤ 0.2
133 | TRNR | 0.466
134 | YTRE | ≤ 0.2
135 | LSRP | ≤ 0.2
136 | NRLY | ≤ 0.2
137 | DNEC | ≤ 0.2
138 | HKVV | ≤ 0.2
139 | WGNH | ≤ 0.2
140 | TPHE | ≤ 0.2
141 | QKRF | 0.258
142 | TEQT | ≤ 0.2
143 | LTCM | ≤ 0.2
144 | AIKM | ≤ 0.2

Row | Variant | one-hybrid fitness for binding NBS DNA
145 | LHNV | ≤ 0.2
146 | QNGI | ≤ 0.2
147 | HHTD | ≤ 0.2
148 | RMTL | ≤ 0.2
149 | RWCT | ≤ 0.2
150 | KTTC | ≤ 0.2
151 | HSQY | ≤ 0.2
152 | YSWC | ≤ 0.2
153 | EMLK | ≤ 0.2
154 | PTPK | ≤ 0.2
155 | SHQQ | ≤ 0.2
156 | PYSK | ≤ 0.2
157 | FRVL | ≤ 0.2
158 | SMGI | ≤ 0.2
159 | NPGS | ≤ 0.2
160 | HMVI | ≤ 0.2
161 | YNKV | ≤ 0.2
162 | TNPD | ≤ 0.2
163 | YNTT | ≤ 0.2
164 | GGLV | ≤ 0.2
165 | DTFC | ≤ 0.2
166 | MFVT | ≤ 0.2
167 | AVYT | ≤ 0.2
168 | YLAT | ≤ 0.2

Row | Variant | one-hybrid fitness for binding NBS DNA
169 | MNPL | ≤ 0.2
170 | TWQS | ≤ 0.2
171 | HKGC | ≤ 0.2
172 | GNDV | ≤ 0.2
173 | GANC | ≤ 0.2
174 | GLNP | ≤ 0.2
175 | VHHN | ≤ 0.2
176 | PKKF | ≤ 0.2
177 | SPSF | ≤ 0.2
178 | VNGK | ≤ 0.2
179 | CYVS | ≤ 0.2
180 | KQMR | ≤ 0.2
181 | AADR | ≤ 0.2
182 | MNDS | ≤ 0.2
183 | PTRN | ≤ 0.2
184 | NLSN | ≤ 0.2
185 | PHIK | ≤ 0.2
186 | KLGR | ≤ 0.2
187 | MPGY | ≤ 0.2
188 | KHEG | ≤ 0.2
189 | ASFA | ≤ 0.2
190 | QSDR | 0.317
191 | ADLV | ≤ 0.2
192 | KDMG | ≤ 0.2

Row | Variant | one-hybrid fitness for binding NBS DNA
193 | LKRI | ≤ 0.2
194 | GYKL | ≤ 0.2
195 | NIKQ | ≤ 0.2
196 | QLRL | ≤ 0.2
197 | LWNR | ≤ 0.2
198 | KGAN | ≤ 0.2
199 | QLFM | ≤ 0.2
200 | TAWI | ≤ 0.2
201 | KRRK | 0.319
202 | RFRD | ≤ 0.2
203 | SRGE | ≤ 0.2
204 | GAPT | ≤ 0.2
205 | HRLK | ≤ 0.2
206 | RNAW | ≤ 0.2
207 | YCAL | ≤ 0.2
208 | PVGA | ≤ 0.2
209 | NTPW | ≤ 0.2
210 | DQPR | ≤ 0.2
211 | INPC | ≤ 0.2
212 | GAKT | ≤ 0.2
213 | EWQS | ≤ 0.2
214 | HIST | ≤ 0.2
215 | FLAF | ≤ 0.2
216 | GIPM | ≤ 0.2

Row | Variant | one-hybrid fitness for binding NBS DNA
217 | HSNV | ≤ 0.2
218 | PFTK | ≤ 0.2
219 | KANT | ≤ 0.2
220 | NRSG | ≤ 0.2
221 | WTRT | ≤ 0.2
222 | IYNT | ≤ 0.2
223 | SFFI | ≤ 0.2
224 | RELP | ≤ 0.2
225 | QARF | 0.266
226 | DPAS | ≤ 0.2
227 | AELR | ≤ 0.2
228 | CLHL | ≤ 0.2
229 | DASI | ≤ 0.2
230 | TTKQ | ≤ 0.2
231 | KSFF | ≤ 0.2
232 | GHWA | ≤ 0.2
233 | RKNI | ≤ 0.2
234 | KGTR | ≤ 0.2
235 | LALK | ≤ 0.2
236 | FTMY | ≤ 0.2
237 | MTRI | ≤ 0.2
238 | PWPT | ≤ 0.2
239 | CRAD | ≤ 0.2
240 | SVTH | ≤ 0.2

Row | Variant | one-hybrid fitness for binding NBS DNA
241 | VPHF | ≤ 0.2
242 | NHYR | ≤ 0.2
243 | WGRL | ≤ 0.2
244 | EITI | ≤ 0.2
245 | KSRR | 0.343
246 | YATH | ≤ 0.2
247 | KHDS | ≤ 0.2
248 | TSIH | ≤ 0.2
249 | AMCN | ≤ 0.2
250 | GCQR | ≤ 0.2
251 | WPRS | ≤ 0.2
252 | IYFG | ≤ 0.2
253 | AAPE | ≤ 0.2
254 | HQST | ≤ 0.2
255 | RFNG | ≤ 0.2
256 | ATNH | ≤ 0.2
257 | VDVV | ≤ 0.2
258 | GKAE | ≤ 0.2
259 | THPC | ≤ 0.2
260 | RCFP | ≤ 0.2
261 | KWEL | ≤ 0.2
262 | MKSN | ≤ 0.2
263 | GNKY | ≤ 0.2
264 | VLIG | ≤ 0.2

Row | Variant | one-hybrid fitness for binding NBS DNA
265 | NVES | ≤ 0.2
266 | QHGS | 0.343
267 | DNRG | ≤ 0.2
268 | WPSS | ≤ 0.2
269 | SCRV | ≤ 0.2
270 | EVVE | ≤ 0.2
271 | RWIC | ≤ 0.2
272 | ACVC | ≤ 0.2
273 | QKNL | ≤ 0.2
274 | AQRL | ≤ 0.2
275 | LGAN | ≤ 0.2
276 | QFDF | ≤ 0.2
277 | RKGF | ≤ 0.2
278 | TGQL | ≤ 0.2
279 | PTYI | ≤ 0.2
280 | PNYG | ≤ 0.2
281 | WRPY | ≤ 0.2
282 | ILAH | ≤ 0.2
283 | INAC | ≤ 0.2
284 | CAHR | ≤ 0.2
285 | PGWW | ≤ 0.2
286 | FKLE | ≤ 0.2
287 | EIIT | ≤ 0.2
288 | VRHR | 0.327

Row | Variant | one-hybrid fitness for binding NBS DNA
289 | MFPS | ≤ 0.2
290 | VISF | ≤ 0.2
291 | FVLH | ≤ 0.2
292 | VRQL | ≤ 0.2
293 | PDAR | ≤ 0.2
294 | DFLF | ≤ 0.2
295 | YWAY | ≤ 0.2
296 | RITK | ≤ 0.2
297 | AMQR | ≤ 0.2
298 | WRKI | ≤ 0.2
299 | GPRM | ≤ 0.2
300 | IVVY | ≤ 0.2
301 | FQCC | ≤ 0.2
302 | EGLH | ≤ 0.2
303 | LSGL | ≤ 0.2
304 | CPKT | ≤ 0.2
305 | RGPS | 0.258
306 | RIQK | ≤ 0.2
